Test results: the supplement of paper PMC8728848
This is one part of the list.

Legend:
Test in all cases: glycan array binding signal (z-score within array); higher = stronger binding
Conditions in all cases: glycan notation: IUPAC condensed, linker removed
[1] = biological target: Gal(b1-4)GlcNAc(b1-2)Man(a1-3)[Gal(b1-4)GlcNAc(b1-2)Man(a1-6)]Man(b1-4)GlcNAc(b1-4)GlcNAc
In short: (§1)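 Glycan array binding is given as a within-array Z-score, which can be read as non-binding when negative. The arrays, 3228 of them, came from the Consortium for Functional Glycomics database and were retained only where the protein sequence was available. Z-scores were averaged across arrays of the same protein sequence at different concentrations or buffers and across linkers.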

[2] = biological target: Gal(b1-4)GlcNAc(b1-2)Man(a1-3)[Gal(b1-4)GlcNAc(b1-2)Man(a1-6)]Man(b1-4)GlcNAc(b1-4)[Fuc(a1-6)]GlcNAc
In short: as §1

[3] = biological target: Gal(b1-4)GlcNAc(b1-2)Man(a1-3)[Gal(b1-4)GlcNAc(b1-2)][GlcNAc(b1-4)]Man(b1-4)GlcNAc(b1-4)GlcNAc
In short: as §1

[4] = biological target: Gal(b1-4)GlcNAc(b1-2)Man(a1-3)[GlcNAc(b1-2)Man(a1-6)]Man(b1-4)GlcNAc(b1-4)GlcNAc
In short: as §1

[5] = biological target: Gal(b1-4)GlcNAc(b1-2)Man(a1-3)[Man(a1-6)]Man(b1-4)GlcNAc(b1-4)GlcNAc
In short: as §1

[6] = biological target: Gal(b1-4)GlcNAc(b1-2)Man(a1-6)Man(b1-4)GlcNAc(b1-4)GlcNAc
In short: as §1

[7] = biological target: Gal(b1-4)GlcNAc(b1-2)Man(a1-6)[GlcNAc(b1-2)Man(a1-3)]Man(b1-4)GlcNAc(b1-4)GlcNAc
In short: as §1

[8] = biological target: Gal(b1-4)GlcNAc(b1-2)Man(a1-6)[Man(a1-3)]Man(b1-4)GlcNAc(b1-4)GlcNAc
In short: as §1

[9] = biological target: Gal(b1-4)GlcNAc(b1-2)[Gal(b1-4)GlcNAc(b1-4)]Man(a1-3)[Gal(b1-4)GlcNAc(b1-2)Man(a1-6)]Man(b1-4)GlcNAc(b1-4)GlcNAc
In short: as §1

[10] = biological target: Gal(b1-4)GlcNAc(b1-2)[Gal(b1-4)GlcNAc(b1-4)]Man(a1-3)[Gal(b1-4)GlcNAc(b1-2)[Gal(b1-4)GlcNAc(b1-6)]Man(a1-6)]Man(b1-4)GlcNAc(b1-4)GlcNAc
In short: as §1

[11] = biological target: Gal(b1-4)GlcNAc(b1-2)[Gal(b1-4)GlcNAc(b1-4)]Man(a1-3)[GlcNAc(b1-4)][Gal(b1-4)GlcNAc(b1-2)Man(a1-6)]Man(b1-4)GlcNAc(b1-4)GlcNAc
In short: as §1

[12] = biological target: Gal(b1-4)GlcNAc(b1-2)[Gal(b1-4)GlcNAc(b1-4)]Man(a1-3)[GlcNAc(b1-4)][Gal(b1-4)GlcNAc(b1-2)[Gal(b1-4)GlcNAc(b1-6)]Man(a1-6)]Man(b1-4)GlcNAc(b1-4)GlcNAc
In short: as §1

[13] = biological target: Gal(b1-4)GlcNAc(b1-2)[Gal(b1-4)GlcNAc(b1-6)]Man(a1-6)[Gal(b1-4)GlcNAc(b1-2)Man(a1-3)]Man(b1-4)GlcNAc(b1-4)GlcNAc
In short: as §1

[14] = biological target: Gal(b1-4)GlcNAc(b1-2)[Gal(b1-4)GlcNAc(b1-6)]Man(a1-6)[GlcNAc(b1-4)][Gal(b1-4)GlcNAc(b1-2)Man(a1-3)]Man(b1-4)GlcNAc(b1-4)GlcNAc
In short: as §1

[15] = biological target: Gal(b1-4)GlcNAc(b1-3)Gal(b1-3)GlcNAc
In short: as §1

[16] = biological target: Gal(b1-4)GlcNAc(b1-3)Gal(b1-4)Glc
In short: as §1

[17] = biological target: Gal(b1-4)GlcNAc(b1-3)Gal(b1-4)GlcNAc
In short: as §1

[18] = biological target: Gal(b1-4)GlcNAc(b1-3)Gal(b1-4)GlcNAc(b1-3)Gal(b1-4)GlcNAc
In short: as §1

[19] = biological target: Gal(b1-4)GlcNAc(b1-3)Gal(b1-4)[Fuc(a1-3)GlcNAc(b1-6)]Gal(b1-4)Glc
In short: as §1

[20] = biological target: Gal(b1-4)GlcNAc(b1-3)Gal(b1-4)[Fuc(a1-3)]GlcNAc(b1-3)Gal(b1-4)[Fuc(a1-3)]GlcNAc
In short: as §1

[21] = biological target: Gal(b1-4)GlcNAc(b1-3)GalNAc
In short: as §1

[22] = biological target: Gal(b1-4)GlcNAc(b1-3)[Gal(b1-4)GlcNAc(b1-6)]Gal(b1-4)GlcNAc
In short: as §1

[23] = biological target: Gal(b1-4)GlcNAc(b1-3)[Gal(b1-4)GlcNAc(b1-6)]GalNAc
In short: as §1

[24] = biological target: Gal(b1-4)GlcNAc(b1-3)[GlcNAc(b1-6)]Gal(b1-4)GlcNAc
In short: as §1

[25] = biological target: Gal(b1-4)GlcNAc(b1-6)Gal(b1-4)GlcNAc
In short: as §1

[26] = biological target: Gal(b1-4)GlcNAc(b1-6)GalNAc
In short: as §1

[27] = biological target: Gal(b1-4)GlcNAc(b1-6)[Gal(b1-3)]GalNAc
In short: as §1

Gal(b1-6)Gal = biological target: Gal(b1-6)Gal
In short: as §1

Gal3S(b1-3)GalNAc = biological target: Gal3S(b1-3)GalNAc
In short: as §1

Gal3S(b1-3)GlcNAc = biological target: Gal3S(b1-3)GlcNAc
In short: as §1

B1: NanI (Corynebacterium diphtheriae), C6JSW7 (protein)
chain: MTNTLESNPMTTTTGALTITFATTCDGPLAHIPHHLDLNIIHGRIQGTTAHRRIDAEDPDGLDDGLPHHLCLSVDTTGTHLFIDGYEAFSTTQTEWFDTSELTLNPHGDLTIIDHQILNHAPTPRQARNLAPAAEPLVWFAGSHLSTRDTQRISHLTHGSLRLLMKTRGTGQGGVAFQAHTINGDLTLEIIDGTLIFSVRCHDEDYVRITAPGRWDDGQIYDVVIVCGRGATDIYVDGQQLIHSPGAAFFNDLSGELSVHIGTAASGVRLFGEVQSGMIYPHVFNHHQVQRLATVEPIATQALFDCLLDGAQSYRIPSLITTDSGVIIAGADKRVSIANDAPNDIDFVLRRSVDGGRTWQPPRTILQLPDTACVTDSVLLQDHTTGRIFAFLDQFPAGIGQPNAAFGTGFDADGNRIGHFADGSTCTMPREVDQLEASFFSDPHTAPPGIVFQHPSCHLWMLTSDDDGLTWSTPRDLTPDVKEEWMRFCGTSPGNGIQLQRDTHAGRLLIPMYYTKGDQFFAAALYSDDHGDTWHRGESPDLEMYESTLVEASDGSVLLWARNQHPSGAVAHARSTDGGHSWSQVTFNPNVPEIFSQPNALRVTNPDGIIFANASQLLPFRGRGVLRMSTNDGASWQHNRVFNPRHYVYQCMTQLPDGSIGLLWEREMQGLFFSIIPMTWIMQGYAL
[1]
  glycan array binding signal (z-score): 0.035
[2]
  glycan array binding signal (z-score): 0.309
[3]
  glycan array binding signal (z-score): -0.256
[4]
  glycan array binding signal (z-score): -0.469
[5]
  glycan array binding signal (z-score): -0.178
[6]
  glycan array binding signal (z-score): -0.306
[7]
  glycan array binding signal (z-score): -0.274
[8]
  glycan array binding signal (z-score): -0.574
[9]
  glycan array binding signal (z-score): 0.276
[10]
  glycan array binding signal (z-score): 0.758
[11]
  glycan array binding signal (z-score): -0.205
[12]
  glycan array binding signal (z-score): 0.081
[13]
  glycan array binding signal (z-score): 8.52
[14]
  glycan array binding signal (z-score): 0.019
[15]
  glycan array binding signal (z-score): 0.332
[16]
  glycan array binding signal (z-score): -0.376
[17]
  glycan array binding signal (z-score): -0.586
[18]
  glycan array binding signal (z-score): -0.704
[19]
  glycan array binding signal (z-score): -0.201
[20]
  glycan array binding signal (z-score): 0.005
[21]
  glycan array binding signal (z-score): 0.136
[22]
  glycan array binding signal (z-score): -0.463
[23]
  glycan array binding signal (z-score): -0.3
[24]
  glycan array binding signal (z-score): -0.61
[25]
  glycan array binding signal (z-score): -0.148
[26]
  glycan array binding signal (z-score): 0.855
[27]
  glycan array binding signal (z-score): -0.007
Gal(b1-6)Gal
  glycan array binding signal (z-score): 0.892
Gal3S(b1-3)GalNAc
  glycan array binding signal (z-score): -0.364
Gal3S(b1-3)GlcNAc
  glycan array binding signal (z-score): -0.768
